Measurements taken from paper PMC7819943, “Rice protein-binding microarrays: a tool to detect cis-acting elements near promoter regions in rice”.
The other results are listed elsewhere or left out.

target: T1, OsWOX13 (Oryza sativa, UniProt Q5QMM3 1-267); experiment: protein-binding microarray (RPBM); PBS, 2% BSA, 51.3 ng/ul salmon testes DNA, 50 uM zinc acetate, 200 nM TF, 25 C, 1 h; high values mean tight binding; settings: protein: recombinant; tags: N-terminal polyhistidine and DsRed monomer fusion (pET32a); label: CyDye5-dUTP incorporated in the synthesized complementary strand; 3' TTTTT single-stranded linker to array surface; dsDNA, one strand shown
T1 sequence: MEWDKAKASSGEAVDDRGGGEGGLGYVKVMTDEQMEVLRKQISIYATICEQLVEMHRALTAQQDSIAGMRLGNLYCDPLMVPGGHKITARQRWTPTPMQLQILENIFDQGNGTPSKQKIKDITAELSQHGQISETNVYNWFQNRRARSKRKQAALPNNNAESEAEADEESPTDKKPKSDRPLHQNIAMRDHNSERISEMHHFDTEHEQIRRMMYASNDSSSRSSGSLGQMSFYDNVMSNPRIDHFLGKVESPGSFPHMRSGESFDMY
Procedure, shortened: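 An Axon 4000B scanner gave the binding signal as per-feature fluorescence intensity in arbitrary units. This followed washing of a custom Agilent array that had been incubated for 1 h at 25 °C with 200 nM protein in PBS, 2% BSA, salmon testes DNA and 50 µM zinc acetate. The proteins were transcription factors fused at the N-terminus to polyhistidine and DsRed, expressed in E. coli BL21-CodonPlus and purified on Ni–NTA.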

| Sequence | binding signal |
| --- | --- |
| CTACTGTACTAATTAATTTCAATCACAATCCCGTCTTGTGCGGAGTCACCTAGTGCAG | 34300 fluorescence intensity (a.u.) |
| CTTCCTCATCATAGGATGATTGATTACCTAAGGAGCTCCCCGGAGTCACCTAGTGCAG | 31900 fluorescence intensity (a.u.) |
| ACTATGATTATTATAGGTAACATATAAATTATTAGTCAGGCGGAGTCACCTAGTGCAG | 31900 fluorescence intensity (a.u.) |
| AAAGGAATTATGGTCTAATTTTAGTGAAGGTGAAAAGTAGCGGAGTCACCTAGTGCAG | 3510 fluorescence intensity (a.u.) |
| AGAGGGAATTGCTAGTCAATTGTGGGTGCTTAATTTGTGCCGGAGTCACCTAGTGCAG | 7720 fluorescence intensity (a.u.) |
| GTTTCTAACTGAAGATGGATTGAAGAGTGTTGTTGATTCCCGGAGTCACCTAGTGCAG | 10800 fluorescence intensity (a.u.) |
| TTAGATTTCAATCGCTTTTGATTTGAGGGTCATGAAGTGACGGAGTCACCTAGTGCAG | 7670 fluorescence intensity (a.u.) |
| GTTGATTTGTAAACGCACTGAACGGTTTATATGATGTGCTCGGAGTCACCTAGTGCAG | 44000 fluorescence intensity (a.u.) |
| GAGATGGATGATTGCACTCCACTAAATAGAAGTTTGGTGGCGGAGTCACCTAGTGCAG | 18500 fluorescence intensity (a.u.) |
| CGAAATAAAATTATATTATATTGTTAATATAATGGGTGAACGGAGTCACCTAGTGCAG | 13000 fluorescence intensity (a.u.) |
| GGCCGTTACACCTCCTGTAGCTAGCTGTAGGCACCTCAGCCGGAGTCACCTAGTGCAG | 24700 fluorescence intensity (a.u.) |
| TAGCTGATAGACGGGTCGCCTGGATATTTTCTCCGTCGATCGGAGTCACCTAGTGCAG | 16700 fluorescence intensity (a.u.) |
| CCTAATTGCTACTGATCACCGAGTAGCTCGTTTCACCTACCGGAGTCACCTAGTGCAG | 45500 fluorescence intensity (a.u.) |
| CTGAGATGCTAATTGTGTGTACACTGTTGAGCACATTTGACGGAGTCACCTAGTGCAG | 3680 fluorescence intensity (a.u.) |
| AACTTGATCATTACAACAATTAAGTTGCCTCTTGAATCCACGGAGTCACCTAGTGCAG | 5110 fluorescence intensity (a.u.) |
| ATAATATAATTACATTTTAATTATAATGTATTTATATTAACGGAGTCACCTAGTGCAG | 28100 fluorescence intensity (a.u.) |
| AGATCTGATTGATATTGATCCATCGCCGATCGATTGATCACGGAGTCACCTAGTGCAG | 53800 fluorescence intensity (a.u.) |
| ACTTCTACATAATTACTGTCTTTGTTGAGGGGTAAACTACCGGAGTCACCTAGTGCAG | 8280 fluorescence intensity (a.u.) |
| TACATATGTAATTTGCAATTCACATGGTAAATACACTAAACGGAGTCACCTAGTGCAG | 5500 fluorescence intensity (a.u.) |
| CCGCTCTTGATTAGGTCGATGGGGTAATTTCTCTGTGTTTCGGAGTCACCTAGTGCAG | 18200 fluorescence intensity (a.u.) |
| TTATGACTGAGGTTAATTAAATAAAAGAGAAGCAAGTAGCCGGAGTCACCTAGTGCAG | 24200 fluorescence intensity (a.u.) |

| Sequence | binding signal |
| --- | --- |
| AGGGAATTGACCAGCGTTTAAATGTGGCTGTTCTTGCCTTCGGAGTCACCTAGTGCAG | 10600 fluorescence intensity (a.u.) |
| ATATATATATATATATATATATATATATCATCGAAAATGTCGGAGTCACCTAGTGCAG | 5140 fluorescence intensity (a.u.) |
| ACTATAAGATTGAGAGTTTCATATGCAAGTCAACGATGTTCGGAGTCACCTAGTGCAG | 7630 fluorescence intensity (a.u.) |
| TTTAACGTGGATCTAAACAGACGATCAAACAACATCGACGCGGAGTCACCTAGTGCAG | 6200 fluorescence intensity (a.u.) |
| ACGCTAATTATCCTCCACCACGAGTCCCCACCCGCCCAGACGGAGTCACCTAGTGCAG | 24600 fluorescence intensity (a.u.) |
| TACTAATTTTGAATTTAGAGCTATTAACCAATAAATTGTTCGGAGTCACCTAGTGCAG | 12200 fluorescence intensity (a.u.) |
| TCCCCTTGATTGATTGATCACCATTATTATAACATCCTCTCGGAGTCACCTAGTGCAG | 64400 fluorescence intensity (a.u.) |
| GCCCACAAATTAAACCGAGAGAAATTAAGAACTTAAGTGTCGGAGTCACCTAGTGCAG | 3380 fluorescence intensity (a.u.) |
| CTATAAAATTAATTATTAGATCAAACTTAATATTTTCCAACGGAGTCACCTAGTGCAG | 23400 fluorescence intensity (a.u.) |
| CCTCTCCTTAATTTAGACATAAACTTAATTAGCTATGCCGCGGAGTCACCTAGTGCAG | 35600 fluorescence intensity (a.u.) |
| AAACATTAATTAATACCATAATAGTTAGGTGACAATTGACCGGAGTCACCTAGTGCAG | 27100 fluorescence intensity (a.u.) |
| ATAAATTGGACGGCTGAGATACTATCTGCTATAGGAAGCGCGGAGTCACCTAGTGCAG | 31900 fluorescence intensity (a.u.) |
| GGCAAGTGATTATAGAAAAGGGGATCGCTGATCAAGGATACGGAGTCACCTAGTGCAG | 5180 fluorescence intensity (a.u.) |
| GAAATTTGACAAGCAAGAACCAATCAACTAAATCAATCCACGGAGTCACCTAGTGCAG | 14200 fluorescence intensity (a.u.) |
| CTTGATTTTGAAGTTGATTTTGAAATGCTTTTAACGTAATCGGAGTCACCTAGTGCAG | 33400 fluorescence intensity (a.u.) |
| ATGTCATTTTAAAGTTTAATTAATTAGATAATTACCTTCTCGGAGTCACCTAGTGCAG | 17500 fluorescence intensity (a.u.) |
| TGTTTAAATGGATGATAAGTAGAATTACTTATCCTTGTTCCGGAGTCACCTAGTGCAG | 6280 fluorescence intensity (a.u.) |
| CAACCGAAATGACAGAGGATTGACTACACGCCTATACTATCGGAGTCACCTAGTGCAG | 5590 fluorescence intensity (a.u.) |
| ATCAATCTCAATGGTTAAATGATTGATCTATCATAATTCACGGAGTCACCTAGTGCAG | 22100 fluorescence intensity (a.u.) |
| TAGTTTAACATAATTAATAATTAATTATACCTTGAGTTAACGGAGTCACCTAGTGCAG | 20100 fluorescence intensity (a.u.) |
| TCAGATCTATTCAATCAGATGATGTTCTTGCCTGATATTCCGGAGTCACCTAGTGCAG | 9610 fluorescence intensity (a.u.) |
